This is an account of results in PubChem BioAssay AID246 (DTP/NCI, 2004).

Inconclusive results and toxic doses are left out. The source holds more than one record for some entries. They are shown here; other results are not. An entry can have further records. The values listed for one entry repeat one measurement (runs, samples, wells, individuals or studies).

The test system of this assay is BDF1 mice, P1081 chloroleukemia ip, survival T/C. Description: NCI In Vivo Anticancer Drug Screen. Data for tumor model P1081 Chloroleukemia (intraperitoneal) in B6D2F1 (BDF1) mice. The conditions noted are these: endpoint: mean survival time, higher = longer survival. The method, then:
The antitumor activity of compounds was measured in mice bearing transplantable tumors. Survival or tumor size were measured and the results are expressed as the measurement made in the treated group (T) divided by the measurement made in the vehicle treated control group (C). The tumor model used in this assay is P1081 Chloroleukemia (intraperitoneal) in B6D2F1 (BDF1) mice

Where [1] appears, read: dose: 50.0 mg/kg/injection, schedule: Q01DX Z (ip), vehicle: carboxymethylcellulose (CMC).
The mark [2] stands for this setting: dose: 100.0 mg/kg/injection, schedule: Q01DX Z (ip), vehicle: carboxymethylcellulose (CMC).

In the case of `N#[N+]c1cnc([O-])[nH]c1=O`, the T/C (dose: 2.5 mg/kg/injection, schedule: Q01DX010 (ip), vehicle: saline) is 122 % of control and 180 % of control.

As for `CN(C)CC(=O)c1ccc(O)c(O)c1`, the T/C was 111 % of control and 166 % of control (dose: 250.0 mg/kg/injection, schedule: Q01DX Z (ip), vehicle: saline); 113 % of control and 153 % of control (dose: 500.0 mg/kg/injection, schedule: Q01DX Z (ip), vehicle: saline). As for `Oc1cc(CN(CCCl)CCCl)c(O)cc1CN(CCCl)CCCl`, the T/C (dose: 1.88 mg/kg/injection, schedule: Q01DX Z (sc), vehicle: steriod suspending solution) was 105 % of control and 174 % of control. For the molecule `[I][Hg][CH2]C1COC([CH2][Hg][I])CO1` (stereo unspecified), the T/C (dose: 30.0 mg/kg/injection, schedule: Q01DX Z (ip), vehicle: carboxymethylcellulose (CMC)) was 87 % of control, 98 % of control, 155 % of control. On to `O=c1[nH]cc(F)c(=O)[nH]1`, for which the T/C (dose: 25.0 mg/kg/injection, schedule: Q01DX Z (ip), vehicle: saline) was 121 % of control and 159 % of control. For `C[N+](C)(C)c1ncnc2nc[nH]c12`, the T/C under setting [1] is 108 % of control and 172 % of control. Turning to `CS(=O)(=O)OCCC(=O)N1CCN(C(=O)CCOS(C)(=O)=O)CC1`, the T/C (dose: 12.5 mg/kg/injection, schedule: Q01DX010 (ip), vehicle: saline) was 116 % of control and 165 % of control. For `CCOC(=O)NP(=O)(N1CC1(C)C)N1CC1(C)C` (stereo unspecified), the T/C (dose: 31.0 mg/kg/injection, schedule: Q01DX Z (ip), vehicle: carboxymethylcellulose (CMC)) is 99 % of control and 151 % of control.

Consider `N#CCSc1ncnc2nc[nH]c12`, for which, where the note is “dose: 25.0 mg/kg/injection, schedule: Q01DX Z (ip), vehicle: carboxymethylcellulose (CMC)”, the T/C is 110 % of control and 150 % of control. On to `CSc1ncnc2nc[nH]c12`, for which the T/C under setting [1] is on record as 96 % of control, 123 % of control, 158 % of control and the T/C under setting [2] was 100 % of control, 111 % of control, 151 % of control. In the case of `O=C(Nc1ccc(C2=NCCN2)cc1)c1ccc(C(=O)Nc2ccc(C3=NCCN3)cc2)c(Cl)c1`, the T/C is 94 % of control and 153 % of control (dose: 15.0 mg/kg/injection, schedule: Q01DX Z (ip), vehicle: water); 93 % of control and 200 % of control (dose: 30.0 mg/kg/injection, schedule: Q01DX Z (ip), vehicle: water). On to `CCCSc1ncnc2nc[nH]c12`, for which the T/C under setting [2] was 91 % of control and 166 % of control. For `Nc1nc(=S)c2ncn(C3OC(CO)C(O)C3O)c2[nH]1` (stereo unspecified), the T/C (dose: 2.0 mg/kg/injection, schedule: Q01DX010 (ip), vehicle: saline) was 100 % of control and 161 % of control; the T/C (dose: 4.0 mg/kg/injection, schedule: Q01DX010 (ip), vehicle: saline) is 90 % of control and 150 % of control. Take `CO[C@@H]1[C@@H](OC2OC(C)C(OC3CC(C)(O)C(OC(=O)CC(C)C)C(C)O3)C(N(C)C)C2O)[C@@H](CC=O)C[C@@H](C)C(=O)/C=C/C2O[C@H]2C[C@@H](C)OC(=O)C[C@H]1OC(C)=O` (stereo partly specified): the T/C (dose: 75.0 mg/kg/injection, schedule: Q01DX010 (ip), vehicle: saline) is 105 % of control and 150 % of control. `C=CC(CN1CC1)OC(C)=O` (stereo unspecified): under “dose: 1.88 mg/kg/injection, schedule: Q01DX Z (ip), vehicle: carboxymethylcellulose (CMC)”, the T/C is 114 % of control and 151 % of control. With `Cn1c(N)nc2nc[nH]c2c1=S`, the T/C was 100 % of control and 180 % of control (dose: 40.0 mg/kg/injection, schedule: Q01DX010 (ip), vehicle: saline); 105 % of control and 200 % of control (dose: 80.0 mg/kg/injection, schedule: Q01DX010 (ip), vehicle: saline).
